Data as given in the supplement of paper PMC8728848.
Some of the results follow.

What was measured:
Assay in all cases: glycan array binding signal (z-score within array); higher = stronger binding
Conditions in all cases: glycan notation: IUPAC condensed, linker removed
[1] = target: Neu5Ac(a2-6)Gal(b1-4)GlcNAc(b1-2)Man(a1-3)[Neu5Ac(a2-3)Gal(b1-4)GlcNAc(b1-2)Man(a1-6)]Man(b1-4)GlcNAc(b1-4)GlcNAc
In short: (§1)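 Glycan array binding is given as a within-array Z-score, which can be read as non-binding when negative. The arrays, 3228 of them, came from the Consortium for Functional Glycomics database and were retained only where the protein sequence was available. Z-scores were averaged across arrays of the same protein sequence at different concentrations or buffers and across linkers.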

[2] = target: Neu5Ac(a2-6)Gal(b1-4)GlcNAc(b1-2)Man(a1-3)[Neu5Ac(a2-6)Gal(b1-4)GlcNAc(b1-2)Man(a1-6)]Man(b1-4)GlcNAc(b1-4)GlcNAc
In short: as §1

[3] = target: Neu5Ac(a2-6)Gal(b1-4)GlcNAc(b1-2)Man(a1-3)[Neu5Ac(a2-6)Gal(b1-4)GlcNAc(b1-2)Man(a1-6)]Man(b1-4)GlcNAc(b1-4)[Fuc(a1-6)]GlcNAc
In short: as §1

[4] = target: Neu5Ac(a2-6)Gal(b1-4)GlcNAc(b1-2)Man(a1-6)Man(b1-4)GlcNAc(b1-4)GlcNAc
In short: as §1

[5] = target: Neu5Ac(a2-6)Gal(b1-4)GlcNAc(b1-2)Man(a1-6)[Gal(b1-4)GlcNAc(b1-2)Man(a1-3)]Man(b1-4)GlcNAc(b1-4)GlcNAc
In short: as §1

[6] = target: Neu5Ac(a2-6)Gal(b1-4)GlcNAc(b1-2)Man(a1-6)[GlcNAc(b1-2)Man(a1-3)]Man(b1-4)GlcNAc(b1-4)GlcNAc
In short: as §1

[7] = target: Neu5Ac(a2-6)Gal(b1-4)GlcNAc(b1-2)Man(a1-6)[Man(a1-3)]Man(b1-4)GlcNAc(b1-4)GlcNAc
In short: as §1

[8] = target: Neu5Ac(a2-6)Gal(b1-4)GlcNAc(b1-2)[Neu5Ac(a2-6)Gal(b1-4)GlcNAc(b1-4)]Man(a1-3)[GlcNAc(b1-4)][Neu5Ac(a2-6)Gal(b1-4)GlcNAc(b1-2)[Neu5Ac(a2-6)Gal(b1-4)GlcNAc(b1-6)]Man(a1-6)]Man(b1-4)GlcNAc(b1-4)GlcNAc
In short: as §1

[9] = target: Neu5Ac(a2-6)Gal(b1-4)GlcNAc(b1-2)[Neu5Ac(a2-6)Gal(b1-4)GlcNAc(b1-4)]Man(a1-3)[GlcNAc(b1-4)][Neu5Ac(a2-6)Gal(b1-4)GlcNAc(b1-4)Man(a1-6)]Man(b1-4)GlcNAc(b1-4)GlcNAc
In short: as §1

[10] = target: Neu5Ac(a2-6)Gal(b1-4)GlcNAc(b1-2)[Neu5Ac(a2-6)Gal(b1-4)GlcNAc(b1-6)]Man(a1-6)[Neu5Ac(a2-6)Gal(b1-4)GlcNAc(b1-2)Man(a1-3)][GlcNAc(b1-4)]Man(b1-4)GlcNAc(b1-4)GlcNAc
In short: as §1

[11] = target: Neu5Ac(a2-6)Gal(b1-4)GlcNAc(b1-3)Gal(b1-3)GlcNAc
In short: as §1

[12] = target: Neu5Ac(a2-6)Gal(b1-4)GlcNAc(b1-3)Gal(b1-4)GlcNAc
In short: as §1

[13] = target: Neu5Ac(a2-6)Gal(b1-4)GlcNAc(b1-3)Gal(b1-4)GlcNAc(b1-2)Man(a1-3)[Neu5Ac(a2-6)Gal(b1-4)GlcNAc(b1-3)Gal(b1-4)GlcNAc(b1-2)Man(a1-6)]GalNAc
In short: as §1

[14] = target: Neu5Ac(a2-6)Gal(b1-4)GlcNAc(b1-3)Gal(b1-4)GlcNAc(b1-3)Gal(b1-4)GlcNAc
In short: as §1

[15] = target: Neu5Ac(a2-6)Gal(b1-4)GlcNAc(b1-3)Gal(b1-4)GlcNAc(b1-3)Gal(b1-4)GlcNAc(b1-2)Man(a1-3)[Neu5Ac(a2-6)Gal(b1-4)GlcNAc(b1-3)Gal(b1-4)GlcNAc(b1-3)Gal(b1-4)GlcNAc(b1-2)Man(a1-6)]GalNAc
In short: as §1

[16] = target: Neu5Ac(a2-6)Gal(b1-4)GlcNAc(b1-3)Gal(b1-4)GlcNAc(b1-3)GalNAc
In short: as §1

[17] = target: Neu5Ac(a2-6)Gal(b1-4)GlcNAc(b1-3)Gal(b1-4)GlcNAc(b1-3)[Neu5Ac(a2-6)Gal(b1-4)GlcNAc(b1-3)Gal(b1-4)GlcNAc(b1-6)]GalNAc
In short: as §1

[18] = target: Neu5Ac(a2-6)Gal(b1-4)GlcNAc(b1-3)Gal(b1-4)GlcNAc(b1-6)[Gal(b1-3)]GalNAc
In short: as §1

[19] = target: Neu5Ac(a2-6)Gal(b1-4)GlcNAc(b1-3)Gal(b1-4)[Fuc(a1-3)]GlcNAc(b1-3)Gal(b1-4)[Fuc(a1-3)]GlcNAc
In short: as §1

[20] = target: Neu5Ac(a2-6)Gal(b1-4)GlcNAc(b1-3)GalNAc
In short: as §1

[21] = target: Neu5Ac(a2-6)Gal(b1-4)GlcNAc(b1-3)[Neu5Ac(a2-6)Gal(b1-4)GlcNAc(b1-6)]GalNAc
In short: as §1

[22] = target: Neu5Ac(a2-6)Gal(b1-4)GlcNAc(b1-6)GalNAc
In short: as §1

[23] = target: Neu5Ac(a2-6)Gal(b1-4)GlcNAc(b1-6)[Gal(b1-3)GlcNAc(b1-3)]Gal(b1-4)Glc
In short: as §1

[24] = target: Neu5Ac(a2-6)Gal(b1-4)GlcNAc(b1-6)[Gal(b1-3)]GalNAc
In short: as §1

[25] = target: Neu5Ac(a2-6)Gal(b1-4)GlcNAc6S
In short: as §1

[26] = target: Neu5Ac(a2-6)GalNAc
In short: as §1

[27] = target: Neu5Ac(a2-6)GalNAc(b1-4)GlcNAc
In short: as §1

[28] = target: Neu5Ac(a2-6)GalNAc(b1-4)GlcNAc6S
In short: as §1

[29] = target: Neu5Ac(a2-6)GlcNAc(b1-4)GlcNAc
In short: as §1

[30] = target: Neu5Ac(a2-6)GlcNAc(b1-4)GlcNAc(b1-4)GlcNAc
In short: as §1

B1: RBMC1 (Vibrio cholerae) (protein)
chain: QQSQRVVTADNLMYLRSGFAIDAIGTTVNNLVGGPVQGTNGGVLRAPIALDQLQSVEVTSGLYNWGGYHIVAIKFTMKDGSSVLLGSTHYASNKKVETYTVPQGKRIKQINVWTGGWLVEGFQFVY
[1]
  glycan array binding signal (z-score): 2.28
[2]
  glycan array binding signal (z-score): 4.94
[3]
  glycan array binding signal (z-score): 11.9
[4]
  glycan array binding signal (z-score): 0.115
[5]
  glycan array binding signal (z-score): 3.13
[6]
  glycan array binding signal (z-score): 1.84
[7]
  glycan array binding signal (z-score): -0.031
[8]
  glycan array binding signal (z-score): -0.365
[9]
  glycan array binding signal (z-score): -0.287
[10]
  glycan array binding signal (z-score): -0.28
[11]
  glycan array binding signal (z-score): -0.121
[12]
  glycan array binding signal (z-score): -0.084
[13]
  glycan array binding signal (z-score): 0.638
[14]
  glycan array binding signal (z-score): -0.349
[15]
  glycan array binding signal (z-score): 1.12
[16]
  glycan array binding signal (z-score): -0.164
[17]
  glycan array binding signal (z-score): -0.075
[18]
  glycan array binding signal (z-score): -0.273
[19]
  glycan array binding signal (z-score): -0.205
[20]
  glycan array binding signal (z-score): -0.423
[21]
  glycan array binding signal (z-score): -0.263
[22]
  glycan array binding signal (z-score): 0.748
[23]
  glycan array binding signal (z-score): -0.409
[24]
  glycan array binding signal (z-score): 0.257
[25]
  glycan array binding signal (z-score): -0.22
[26]
  glycan array binding signal (z-score): -0.35
[27]
  glycan array binding signal (z-score): -0.426
[28]
  glycan array binding signal (z-score): -0.277
[29]
  glycan array binding signal (z-score): -0.369
[30]
  glycan array binding signal (z-score): -0.146
